The campaign covered roughly 310,000 compounds. About 2,200 (0.71%) showed an effect of 50% or more. The effect is printed as a negative number. This is one part of the list.

human ether-à-go-go-related gene (hERG) potassium channel, sequence (Q12809 whole entry, looked up): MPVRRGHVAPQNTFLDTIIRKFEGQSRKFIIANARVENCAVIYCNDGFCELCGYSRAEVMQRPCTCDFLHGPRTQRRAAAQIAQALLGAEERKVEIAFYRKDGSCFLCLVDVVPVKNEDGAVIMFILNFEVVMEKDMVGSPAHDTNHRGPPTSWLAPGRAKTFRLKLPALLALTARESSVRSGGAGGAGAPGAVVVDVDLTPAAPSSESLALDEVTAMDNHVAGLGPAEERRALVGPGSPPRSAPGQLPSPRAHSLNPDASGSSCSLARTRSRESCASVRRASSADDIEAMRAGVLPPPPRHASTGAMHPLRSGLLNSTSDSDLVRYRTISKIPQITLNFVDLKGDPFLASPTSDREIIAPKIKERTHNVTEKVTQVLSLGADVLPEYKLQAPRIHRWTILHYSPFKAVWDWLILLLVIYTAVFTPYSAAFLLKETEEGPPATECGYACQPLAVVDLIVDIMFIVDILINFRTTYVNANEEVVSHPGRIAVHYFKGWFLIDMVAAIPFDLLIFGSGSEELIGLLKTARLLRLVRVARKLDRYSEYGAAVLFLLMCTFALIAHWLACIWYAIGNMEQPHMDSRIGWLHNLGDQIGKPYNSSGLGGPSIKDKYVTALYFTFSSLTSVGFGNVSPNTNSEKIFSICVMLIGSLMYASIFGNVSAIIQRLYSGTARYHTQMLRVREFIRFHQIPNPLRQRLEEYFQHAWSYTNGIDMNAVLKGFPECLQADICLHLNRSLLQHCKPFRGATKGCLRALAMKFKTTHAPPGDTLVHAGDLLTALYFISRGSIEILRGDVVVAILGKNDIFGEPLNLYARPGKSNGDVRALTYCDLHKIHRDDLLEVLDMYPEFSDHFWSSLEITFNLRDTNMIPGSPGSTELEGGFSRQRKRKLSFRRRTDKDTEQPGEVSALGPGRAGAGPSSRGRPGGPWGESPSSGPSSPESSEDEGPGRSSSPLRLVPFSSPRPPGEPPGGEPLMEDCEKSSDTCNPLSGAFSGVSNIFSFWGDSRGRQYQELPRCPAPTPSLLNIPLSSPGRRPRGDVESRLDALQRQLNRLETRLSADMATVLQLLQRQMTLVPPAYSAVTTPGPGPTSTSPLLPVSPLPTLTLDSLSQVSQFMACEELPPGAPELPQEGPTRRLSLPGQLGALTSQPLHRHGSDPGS

This assay concerns the target human ether-à-go-go-related gene (hERG) potassium channel (human, UniProt Q12809). In words: primary screen, population patch clamp on CHO cells stably expressing hERG.
On to `NC(=O)C1CCN(Cc2cccc(OCc3ccccc3)c2)CC1.O=C(O)C(=O)O`, for which the “hERG current change (%, negative = inhibition) at 1uM” value is 7.21%.

With `CC(C)=CC(=O)OCC(=O)Nc1ncc(Cl)c(C)c1Cl`, the “hERG current change (%, negative = inhibition) at 1uM” value was 5.43%.

With `CN(C)CCn1nnnc1SCC1=C(C(=O)O)N2C(=O)[C@@H](NC(=O)Cc3csc(N)n3)[C@H]2SC1.Cl`, the “hERG current change (%, negative = inhibition) at 1uM” value is on record as 14%.

On to `CC(=O)O[C@@]1(C)C[C@@H](O)[C@]2(O)C=CO[C@@H](O[C@@H]3O[C@H](CO)[C@@H](O)[C@H](O)[C@H]3O)[C@@H]21`, for which the “hERG current change (%, negative = inhibition) at 1uM” value was found to be 14.8%.

For the molecule `C#CCSc1nnc(-c2sc3ccccc3c2Cl)o1`, the “hERG current change (%, negative = inhibition) at 1uM” value is given as 8.28%.

Consider `Cc1ccc(OCc2nc(-c3ccccc3)no2)cc1`, for which the “hERG current change (%, negative = inhibition) at 1uM” value is 12.3%.

Regarding `C[n+]1c(-c2ccccc2)sc([S-])c1-c1ccccc1`, the “hERG current change (%, negative = inhibition) at 1uM” value amounted to 5.05%.

With `COc1cccc(/C=C/C(=O)OCC(=O)NCC2CCCCC2)c1OC`, the “hERG current change (%, negative = inhibition) at 1uM” value worked out at 8.8%.

For `C/C(=N\NC(=O)Cn1c(-c2ccccn2)nc2ccccc21)c1cccc(O)c1`, the “hERG current change (%, negative = inhibition) at 1uM” value was determined as 10.9%.

With `Clc1ccc(-n2ncc3c(NCc4cccs4)ncnc32)cc1`, the “hERG current change (%, negative = inhibition) at 1uM” value worked out at 0.512%.

Turning to `COc1cc(O)c2c(=O)c3c(OC)c(O)ccc3oc2c1`, the “hERG current change (%, negative = inhibition) at 1uM” value is given as 13.9%.

`CN(Cc1ccc(Cl)cc1)C(=O)CCl`: the “hERG current change (%, negative = inhibition) at 1uM” value stood at 13.3%.

With `COC(=O)c1sc(NC(=O)c2cccc([N+](=O)[O-])c2)c(C(N)=O)c1C`, the “hERG current change (%, negative = inhibition) at 1uM” value was 3.91%.

On to `O=C(CNC(=O)c1cccs1)NC1=NCCS1`, for which the “hERG current change (%, negative = inhibition) at 1uM” value is recorded as 5.78%.

As for `CN(C)S(=O)(=O)c1cccc(COC(=O)c2ccc3c(c2)OCO3)c1`, the “hERG current change (%, negative = inhibition) at 1uM” value is given as 6.23%.

For `O=C(NCc1ccco1)c1cccn2c(=O)c3c4c(sc3nc12)CCCC4`, the “hERG current change (%, negative = inhibition) at 1uM” value was found to be 12%.

Turning to `COc1ccc(OC)c(Nc2nc(-c3sc(N)nc3C)cs2)c1`, the “hERG current change (%, negative = inhibition) at 1uM” value was found to be 7.91%.

Consider `Cc1ccc(C)c(NC(=O)CN(C)C(=O)[C@@H](NC(=O)c2ccc(C(C)(C)C)cc2)C(C)C)c1`, for which the “hERG current change (%, negative = inhibition) at 1uM” value was found to be 8.03%.

As to `Cc1cc(C(=O)NCc2cccs2)c(C)o1`, the “hERG current change (%, negative = inhibition) at 1uM” value is -4.89%.

Consider `Cc1ccc(C)c(NC(=O)CSc2nnc(-c3ccccc3)n2N)c1`, for which the “hERG current change (%, negative = inhibition) at 1uM” value came out at 3.45%.

Take `Cc1ccc(CS(=O)Cc2ccc(C(=O)NCc3cccs3)o2)cc1` (centres unmarked): the “hERG current change (%, negative = inhibition) at 1uM” value is 1.89%.

`O=C(NCCc1ccc(F)cc1)Nc1ccc2c(c1)OCO2`: the “hERG current change (%, negative = inhibition) at 1uM” value turned out to be 8.27%.

Consider `CN(c1ccccc1)S(=O)(=O)c1ccc(C(=O)Nc2nccs2)cc1`, for which the “hERG current change (%, negative = inhibition) at 1uM” value was 16.1%.

For the molecule `CC(C)C(OC(=O)c1cccs1)C(=O)NCc1cccs1` (centres unmarked), the “hERG current change (%, negative = inhibition) at 1uM” value was 0.277%.

Take `NC(=O)C1(C(N)=O)OC1c1ccc(Cl)cc1Cl` (centres unmarked): the “hERG current change (%, negative = inhibition) at 1uM” value stood at 13.3%.

In the case of `CC(=O)C1(C)OC(N)=C(C#N)C(c2ccccc2)C1(C#N)C#N` (centres unmarked), the “hERG current change (%, negative = inhibition) at 1uM” value is listed as 1.02%.

With `CCC(C)C(NC(=O)C1CCC(=O)N1C(=O)OCc1ccccc1)C(=O)NC(Cc1ccccc1)C(N)=O` (centres unmarked), the “hERG current change (%, negative = inhibition) at 1uM” value is on record as 3.26%.

For `Cc1ccc(COc2ccc(/C=N/NC(=O)c3nnn(-c4nonc4N)c3COc3ccc(F)cc3)cc2)cc1`, the “hERG current change (%, negative = inhibition) at 1uM” value amounted to 3%.

Consider `Cc1ccc(OCC(=O)Nc2ccc(CN3CCOCC3)cc2)cc1`, for which the “hERG current change (%, negative = inhibition) at 1uM” value turned out to be 9.56%.

For `CCCn1nc(C(=O)Nc2ccc(N3CCOCC3)cc2)c2ccccc2c1=O`, the “hERG current change (%, negative = inhibition) at 1uM” value came to 1.6%.

Regarding `Cc1ccc(C2CC(C(F)(F)F)n3ncc(C(N)=O)c3N2)cc1` (centres unmarked), the “hERG current change (%, negative = inhibition) at 1uM” value is listed as -1.58%.

Turning to `Cc1ccc(NC(=O)COc2cccc(/C=C3\SC(=S)N(CCC(=O)O)C3=O)c2)cc1Cl`, the “hERG current change (%, negative = inhibition) at 1uM” value was 6.41%.

Turning to `COc1cnc(-c2ccccn2)nc1Oc1ccccc1`, the “hERG current change (%, negative = inhibition) at 1uM” value is listed as -36.5%.

For the molecule `S=C(NCc1ccccc1)N1CCn2cccc2C1c1ccncc1` (centres unmarked), the “hERG current change (%, negative = inhibition) at 1uM” value came to 9.11%.

Regarding `CC1CC(C)CN(c2ccc([N+](=O)[O-])nc2)C1` (centres unmarked), the “hERG current change (%, negative = inhibition) at 1uM” value stood at 14.9%.

With `CCc1cc[n+](/C(C(=S)Nc2cccc(C)c2)=C(/[O-])c2ccc(C)c([N+](=O)[O-])c2)cc1`, the “hERG current change (%, negative = inhibition) at 1uM” value is -0.526%.

On to `CCn1cc(CN(C)S(=O)(=O)c2ccc3ccccc3c2)c(C)n1`, for which the “hERG current change (%, negative = inhibition) at 1uM” value was found to be 14.3%.

For `Cc1cc(C)c2c(SC(C)C)nc(N)nc2n1`, the “hERG current change (%, negative = inhibition) at 1uM” value is given as 9.51%.

Turning to `CCOC(=O)c1cnc2sc3c(n2c1=O)CCCC3`, the “hERG current change (%, negative = inhibition) at 1uM” value is -5.42%.

With `COc1ccc(OCC(O)CON2C(=O)c3ccccc3C2=O)cc1` (centres unmarked), the “hERG current change (%, negative = inhibition) at 1uM” value is reported as -9.15%.

Regarding `Cc1ccccc1OCC1CN(CN2CCOCC2)C(=O)O1` (centres unmarked), the “hERG current change (%, negative = inhibition) at 1uM” value turned out to be 11.9%.

Turning to `CCS(=O)(=O)c1nn2c(N)c(/C=C3/C=CC(=O)C(OC)=C3)c(=O)nc2s1`, the “hERG current change (%, negative = inhibition) at 1uM” value turned out to be 7.06%.

Turning to `O=[N+]([O-])c1cccc(-c2ccn[nH]2)c1`, the “hERG current change (%, negative = inhibition) at 1uM” value is recorded as 10.4%.

As for `Cn1cnnc1SCC(=O)N/N=C/c1ccc(OCC(N)=O)cc1`, the “hERG current change (%, negative = inhibition) at 1uM” value is on record as 14%.

The values above are taken from paper PMC4336329 (PLoS ONE, 2015).
